In PMC3705270:
No constants are given. Whether binding was seen depends on the method and setting. For some assays here: Binding seen in cells or lysates may run through a third protein. Some entries that bind do so weakly or less than the wild type.

The chains behind the UniProt entries cited, without tags or fusion partners.
UniProt P04608: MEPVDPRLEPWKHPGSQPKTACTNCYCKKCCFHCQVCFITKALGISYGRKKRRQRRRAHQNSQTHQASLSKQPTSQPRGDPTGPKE
UniProt P05919: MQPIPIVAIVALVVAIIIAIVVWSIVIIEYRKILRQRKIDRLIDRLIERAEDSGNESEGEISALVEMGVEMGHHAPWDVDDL

How the values were obtained:
[1] = biological target: HIV-1 nucleocapsid protein NC (pGBK-NC, two-hybrid fusion) (HIV-1) (UniProt P04591); experiment: two-hybrid
[2] = biological target: GST-fused NC (purified recombinant, from pGNC1) (HIV-1) (UniProt P04591); experiment: pull-down; only the target purified
[3] = biological target: Flag-tagged NC (pCMV/Flag-NC) in HEK293 cells (HIV-1) (UniProt P04591); experiment: co-IP

Substance | binding [1] | binding [3] | further results
HIV-1 Tat (pGAD-Tat, two-hybrid fusion) (from UniProt P04608 1-86) | binds |  | 
HIV-1 Vpu (pGAD-Vpu, two-hybrid fusion) (from UniProt P05919 1-82) | no binding |  | 
V5-tagged Tat (pcDNA/V5-Tat) in BHK-21 cell lysate (from UniProt P04608 1-86) |  |  | binding [2]: binds
V5-tagged Tat (pcDNA/V5-Tat) in HEK293 cells (from UniProt P04608 1-86) |  | binds | 
V5-tagged Vpu (pcDNA/V5-Vpu) in HEK293 cells (from UniProt P05919 1-82) |  | no binding | 
